Hit rate of the full screen: of about 360,000 compounds, about 16,000 (4.4%) were called active. Inconclusive results, whose numbers are uncertain, are shown with a selection of clear calls. Calls come from the whole dose curve; as a rule, active = well fitted inhibition curve with a large enough effect; inconclusive = small, poorly fitted or top-dose-only effect; inactive = no such curve, though single readings can be large or run the other way. Potencies of inconclusive entries are doubtful fits and often do not repeat.
Each compound was assayed against Bromodomain adjacent to zinc finger domain protein 2B (Homo sapiens) (UniProt Q9UIF8) (assay: qHTS Assay for Inhibitors of BAZ2B). Details: AlphaScreen BAZ2B-H3K14Ac peptide displacement; activity change, negative = inhibition: at 114 µM (top of the series) unless noted.
In short: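 AlphaScreen displacement of biotin-H3(5-23)K14Ac peptide (50 nM final) from BAZ2B (50 nM final) in PBS pH 7.4, 0.01% Tween-20; complex preformed 30 min RT, then compounds (top 110 uM) 30 min RT, beads 20 min dark.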
% is set by controls: 0 for no effect and ±100 for the full control effect; potency is the fitted concentration of half-maximal effect; tags give direction and shape of the fitted curve.
Note: nearly all actives have a fitted effect of over 60% in size.

Sequence of UniProt Q9UIF8 (Q9UIF8 whole entry, looked up, the tested form may be a part): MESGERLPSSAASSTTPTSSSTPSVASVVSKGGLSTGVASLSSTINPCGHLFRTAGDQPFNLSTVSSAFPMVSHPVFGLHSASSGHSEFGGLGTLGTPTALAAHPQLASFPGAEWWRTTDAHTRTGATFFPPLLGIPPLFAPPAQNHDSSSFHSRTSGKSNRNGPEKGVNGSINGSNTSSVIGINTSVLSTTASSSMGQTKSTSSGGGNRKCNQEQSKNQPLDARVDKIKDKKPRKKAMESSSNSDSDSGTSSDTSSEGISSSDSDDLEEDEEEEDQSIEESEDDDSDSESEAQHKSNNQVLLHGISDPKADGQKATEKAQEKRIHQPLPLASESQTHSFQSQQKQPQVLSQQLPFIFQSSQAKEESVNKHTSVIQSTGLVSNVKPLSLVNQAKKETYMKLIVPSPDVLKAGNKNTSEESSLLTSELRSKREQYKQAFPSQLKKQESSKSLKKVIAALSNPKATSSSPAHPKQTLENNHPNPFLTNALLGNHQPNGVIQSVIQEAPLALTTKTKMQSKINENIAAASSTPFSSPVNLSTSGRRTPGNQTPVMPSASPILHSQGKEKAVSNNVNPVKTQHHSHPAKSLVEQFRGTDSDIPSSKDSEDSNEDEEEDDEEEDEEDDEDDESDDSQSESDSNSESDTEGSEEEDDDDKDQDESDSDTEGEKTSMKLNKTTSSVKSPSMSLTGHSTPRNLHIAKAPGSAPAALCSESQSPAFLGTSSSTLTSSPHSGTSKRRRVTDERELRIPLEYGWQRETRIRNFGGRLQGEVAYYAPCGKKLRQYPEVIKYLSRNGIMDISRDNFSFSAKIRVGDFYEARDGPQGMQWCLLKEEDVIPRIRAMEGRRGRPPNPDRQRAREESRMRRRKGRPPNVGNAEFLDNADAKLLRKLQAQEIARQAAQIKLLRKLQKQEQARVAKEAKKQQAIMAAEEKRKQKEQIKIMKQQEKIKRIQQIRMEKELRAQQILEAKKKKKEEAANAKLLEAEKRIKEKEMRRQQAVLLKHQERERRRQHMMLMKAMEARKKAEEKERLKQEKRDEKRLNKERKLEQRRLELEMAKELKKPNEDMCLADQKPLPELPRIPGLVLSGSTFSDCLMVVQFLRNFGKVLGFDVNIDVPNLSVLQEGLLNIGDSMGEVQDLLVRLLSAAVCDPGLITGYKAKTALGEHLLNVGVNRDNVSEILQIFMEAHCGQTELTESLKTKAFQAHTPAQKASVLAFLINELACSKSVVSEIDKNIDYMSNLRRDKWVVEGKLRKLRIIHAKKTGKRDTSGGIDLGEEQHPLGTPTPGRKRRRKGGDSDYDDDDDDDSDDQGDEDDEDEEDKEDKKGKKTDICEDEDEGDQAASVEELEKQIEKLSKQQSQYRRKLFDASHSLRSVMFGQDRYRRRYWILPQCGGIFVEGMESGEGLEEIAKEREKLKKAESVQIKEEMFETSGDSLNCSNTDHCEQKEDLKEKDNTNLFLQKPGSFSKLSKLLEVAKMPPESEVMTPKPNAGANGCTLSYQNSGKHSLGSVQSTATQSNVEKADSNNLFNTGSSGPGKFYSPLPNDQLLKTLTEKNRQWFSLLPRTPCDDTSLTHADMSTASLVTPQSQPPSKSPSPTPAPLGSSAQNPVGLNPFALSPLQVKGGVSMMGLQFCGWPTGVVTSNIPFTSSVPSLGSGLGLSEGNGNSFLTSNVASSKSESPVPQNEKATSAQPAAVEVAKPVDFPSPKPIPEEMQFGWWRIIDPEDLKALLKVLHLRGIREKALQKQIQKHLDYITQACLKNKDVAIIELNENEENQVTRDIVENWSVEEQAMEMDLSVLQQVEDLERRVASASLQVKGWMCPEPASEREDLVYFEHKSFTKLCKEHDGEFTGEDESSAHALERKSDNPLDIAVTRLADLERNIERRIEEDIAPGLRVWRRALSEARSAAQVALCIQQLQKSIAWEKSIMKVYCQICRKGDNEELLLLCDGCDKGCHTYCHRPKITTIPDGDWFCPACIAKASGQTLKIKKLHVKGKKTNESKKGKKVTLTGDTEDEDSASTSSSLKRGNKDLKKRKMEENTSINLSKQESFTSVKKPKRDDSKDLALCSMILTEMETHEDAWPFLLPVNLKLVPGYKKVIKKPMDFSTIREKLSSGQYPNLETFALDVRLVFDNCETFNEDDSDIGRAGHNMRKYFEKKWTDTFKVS

Row | Compound | Potency | activity change, negative = inhibition
1 | O=c1c(C=NCC2CCCO2)c(-c2ccccc2)[nH]n1-c1ccc([N+](=O)[O-])cc1 (configuration not stated) | inconclusive: 79.4 µM [inhibitor, partial curve] | 
2 | Nc1ccccc1-c1nnc(-c2ccccc2N)n1N | inconclusive: 56.2 µM [inhibitor, partial curve, poor fit] | 
3 | C/C(=N\N1CCN(C2c3ccccc3-c3ccccc32)CC1)c1cccnc1 | inconclusive: 50.1 µM [inhibitor, partial curve] | 
4 | COC(=O)C1=C(C)N(Cc2ccco2)C(=O)/C1=C\c1ccc([N+](=O)[O-])cc1 | inconclusive: 50.1 µM [inhibitor, partial curve] | 
5 | COc1ccc(C2NCCc3c2[nH]c2ccccc32)cc1CN1CCc2cc(OC)c(OC)cc2C1C (configuration not stated) | inconclusive: 44.7 µM [inhibitor, partial curve] | 
6 | O=C(O)C1CCN(Cc2ccccn2)CC1 | inconclusive: 89.1 µM [inhibitor, single point] | 
7 | Cc1cc(/C=C(\C#N)C(=O)NCc2cccs2)c(C)n1-c1ccc([N+](=O)[O-])cc1 |  | inactive: -13%
8 | O=[N+]([O-])c1cc(C(F)(F)F)ccc1NCCNC(=S)Nc1ccc(Cl)cc1 | active: 20 µM | 
9 | CN(C)c1ccc(CC2C(=O)Nc3ccccc32)cc1 (configuration not stated) | inconclusive: 50.1 µM [inhibitor, partial curve] | 
10 | CCc1cccc2c(-c3ccc(F)cc3)nc(SCC(=O)Nc3ccccc3)nc12 |  | inactive: 2.24%
11 | O=C(Cc1c(O)c2ccccc2[nH]c1=O)NCc1cccc(F)c1 |  | inactive: 0.0677%
12 | CCOCc1nnc(NC(=O)C2c3ccccc3Oc3ccccc32)s1 | inconclusive: 79.4 µM [inhibitor, single point] | 
13 | CCOc1ccc(N(C)C(=O)CCc2nnc3ccc(N4CCCCC4)nn23)cc1 |  | inactive: -16.1%
14 | CC(C)(C)NC(=O)CSc1nc2scc(-c3ccccc3)c2c(=O)[nH]1 |  | inactive: 0.874%
15 | CSc1nnc2c3ccccc3c3ccccc3c2n1 |  | inactive: 10.1%
16 | COc1ccc(CCNC(=O)c2ccc(CS(=O)(=O)Cc3cccc(C)c3)o2)cc1OC | inconclusive: 89.1 µM [inhibitor, single point] | 
17 | CN1CCN(c2nc(-c3ccccc3)nc(-c3ccccc3)c2C#N)CC1 |  | inactive: -10.4%
18 | CCCOc1cccc(C2C(C(=O)c3cccs3)=C(O)C(=O)N2CCN2CCOCC2)c1 (configuration not stated) | inconclusive: 79.4 µM [inhibitor, single point] | 
19 | COc1cc(C=C(c2nc3ccccc3s2)c2nc3ccccc3s2)ccc1O | active: 35.5 µM | 
20 | COc1ccccc1Nc1nn2c(=O)c3ccc(C(=O)NCc4ccc(F)cc4)cc3nc2s1 | inconclusive: 89.1 µM [inhibitor, single point] | 
21 | COc1ccc(NC(=O)c2c(C)oc3ccc(O)c(CN4CCC(C)CC4)c23)cc1 | inconclusive: 79.4 µM [inhibitor, single point] | 
22 | O=C(C1CCC(Cn2c(=O)c3sccc3n(Cc3cccc(F)c3)c2=O)CC1)N1CCCCC1 (configuration not stated) |  | inactive: -18.9%
23 | CNC(=O)CSc1nc2[nH]ncc2c(=O)[nH]1 |  | inactive: 1.72%
24 | CCOC(=O)C(Cc1c[nH]c2ccccc12)NC(=O)COc1ccc(Cl)c(C)c1 (configuration not stated) |  | inactive: -25.5%

Row | Compound | Potency | activity change, negative = inhibition
25 | COc1cccc(CNC(=O)C2CCC(CNS(=O)(=O)c3ccc(Br)s3)CC2)c1 (configuration not stated) |  | inactive: -2.06%
26 | CCOc1ccc(/C=C2/Sc3ccc(C(=O)N4CCN(C(=O)c5ccco5)CC4)cc3N(C)C2=O)cc1OC | inconclusive: 25.1 µM [inhibitor, full curve] | 
27 | O=C(Nc1ccc(N2CCCCC2)cc1)c1cncc(Br)c1 | inconclusive: 12.6 µM [inhibitor, partial curve] | 
28 | Cc1nc(N2CCN(c3ccccc3)CC2)nc2c1C(=O)CCC2 |  | inactive: -36.8%
29 | COc1ccc(-c2noc(CSc3nnc(-c4ccncc4)n3-c3ccc(C)cc3)n2)cc1 |  | inactive: -33.6%
30 | CN(C)CCNc1ncnc2c1sc1nc(N3CCOCC3)c3c(c12)CC(C)(C)SC3 | inconclusive: 79.4 µM [inhibitor, single point] | 
31 | OC(CN1CCN(c2ccccc2)CC1)Cn1c2ccccc2c2ccccc21 (configuration not stated) | inconclusive: 39.8 µM [inhibitor, full curve] | 
32 | Cc1ccc(NC(=S)Nn2cnnc2)cc1 | inconclusive: 79.4 µM [inhibitor, single point] | 
33 | COc1ccccc1-n1c(/C=C/c2c(C)n(C)c3ccccc23)nc2ccccc2c1=O |  | inactive: -9.13%
34 | CCOC(=O)c1sc2ncn(CC(=O)Nc3ccc(C)cc3Br)c(=O)c2c1C |  | inactive: 2.35%
35 | O=C(O)c1cccc(S(=O)(=O)N2CCc3ccccc3C2)c1 | inconclusive: 89.1 µM [inhibitor, single point] | 
36 | Cn1c(=O)cc(N)n(-c2ccccc2)c1=O |  | inactive: 5.38%
37 | CCCCOc1ccc(CN2CCCCC2)cc1 |  | inactive: -4.37%
38 | COc1cccc(CC(NC(C)=O)C(=O)NC2CCN(C(=O)c3ccncc3)CC2)c1OC (configuration not stated) |  | inactive: -2.36%
39 | CCOc1cc(C(=O)N2CCc3c([nH]c4ccccc34)C2c2ccccc2)cc(OCC)c1OCC (configuration not stated) | inconclusive: 28.2 µM [inhibitor, full curve, poor fit] | 
40 | CC(C)c1ccc(NC(=O)c2cc(S(=O)(=O)NCc3ccccc3Cl)ccc2F)cc1 |  | inactive: 3.11%
41 | CN(C)CCCN1C(=O)c2cccc3c(Br)ccc(c23)C1=O | inconclusive: 56.2 µM [inhibitor, partial curve, poor fit] | 
42 | Cc1cccc(C)c1NC(=O)/C(=C/c1ccco1)c1ccccc1 |  | inactive: -37.1%
43 | O=C(COc1ccccc1F)NNC(=O)c1ccc2c(=O)n3c(nc2c1)CCC3 | inconclusive: 89.1 µM [inhibitor, single point] | 
44 | CCOc1cc2c(cc1OCC)C(c1ccc(C(=O)O)cc1)NCC2 (configuration not stated) |  | inactive: -0.563%
45 | COc1ccc(Cn2cccc(NC(=O)Nc3cccc(OC)c3)c2=O)cc1 | inconclusive: 39.8 µM [inhibitor, partial curve] | 
46 | CCN(CC)CCOC(=O)CCc1cccc2ccccc12 | inconclusive: 89.1 µM [inhibitor, single point] | 
47 | CCC(=O)Nc1ccc(NC(=S)NC(=O)/C=C/c2ccccc2)cc1 | inconclusive: 89.1 µM [inhibitor, single point] | 
